# Results published in the supplement of paper PMC8728848.
# The other results are listed elsewhere or left out.
# B1: DCAL1 (Homo sapiens), Q8IZS7 (protein)
# chain: MVSNFFHVIQVFEKSATLISKTEHIGFVIYSWRKSTTHLGSRRKFAISIYLSEVSLQKYDCPFSGTSFVVFSLFLICAMAGDVVYADIKTVRTSPLELAFPLQRSVSFNFSTVHKSCPAKDWKVHKGKCYWIAETKKSWNKSQNDCAINNSYLMVIQDITAMVRFNI
# Columns and labels:
# Test in all cases: glycan array binding signal (z-score within array); higher = stronger binding
# Settings in all cases: glycan notation: IUPAC condensed, linker removed
# [1] = target: Man(a1-2)Man(a1-2)Man(a1-3)Man
# Procedure, shortened: (§1)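 Glycan array data came from 3228 arrays in the Consortium for Functional Glycomics database, and only arrays with an available protein sequence were kept. Glycan names were put into IUPAC-condensed notation, and columns mapping to the same glycan were averaged. The binding signal is a within-array Z-score, averaged across arrays of one protein sequence run at different concentrations or buffers and across linkers. A negative Z-score can be read as non-binding.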
# [2] = target: Man(a1-2)Man(a1-2)Man(a1-6)[Man(a1-3)]Man
# Procedure, shortened: as §1
# Man(a1-2)Man(a1-3)Man = target: Man(a1-2)Man(a1-3)Man
# Procedure, shortened: as §1
# [3] = target: Man(a1-2)Man(a1-3)[Man(a1-2)Man(a1-6)]Man
# Procedure, shortened: as §1
# [4] = target: Man(a1-2)Man(a1-3)[Man(a1-2)Man(a1-6)]Man(a1-6)[Man(a1-2)Man(a1-2)Man(a1-3)]Man(b1-4)GlcNAc(b1-4)GlcNAc
# Procedure, shortened: as §1
# [5] = target: Man(a1-2)Man(a1-3)[Man(a1-6)]Man(a1-6)[Man(a1-2)Man(a1-3)]Man(b1-4)GlcNAc(b1-4)GlcNAc
# Procedure, shortened: as §1
# [6] = target: Man(a1-2)Man(a1-6)[Man(a1-3)]Man(a1-6)[Man(a1-2)Man(a1-2)Man(a1-3)]Man(b1-4)GlcNAc(b1-4)GlcNAc
# Procedure, shortened: as §1
# Man(a1-3)[Man(a1-6)]Man = target: Man(a1-3)[Man(a1-6)]Man
# Procedure, shortened: as §1
# [7] = target: Man(a1-3)[Man(a1-6)]Man(a1-6)[Man(a1-2)Man(a1-3)]Man(b1-4)GlcNAc(b1-4)GlcNAc
# Procedure, shortened: as §1
# [8] = target: Man(a1-3)[Man(a1-6)]Man(a1-6)[Man(a1-3)]Man(b1-4)GlcNAc(b1-4)GlcNAc
# Procedure, shortened: as §1
# [9] = target: Man(a1-3)[Man(a1-6)]Man(b1-4)GlcNAc(b1-4)GlcNAc
# Procedure, shortened: as §1
# Man(b1-4)GlcNAc = target: Man(b1-4)GlcNAc
# Procedure, shortened: as §1
# Neu5Ac(a2-3)Gal = target: Neu5Ac(a2-3)Gal
# Procedure, shortened: as §1
# [10] = target: Neu5Ac(a2-3)Gal(b1-3)GalNAc
# Procedure, shortened: as §1
# [11] = target: Neu5Ac(a2-3)Gal(b1-3)GalNAc(b1-3)Gal(a1-4)Gal(b1-4)Glc
# Procedure, shortened: as §1
# [12] = target: Neu5Ac(a2-3)Gal(b1-3)GalNAc(b1-3)Gal(b1-4)GlcNAc
# Procedure, shortened: as §1
# [13] = target: Neu5Ac(a2-3)Gal(b1-3)GalNAc(b1-4)[Neu5Ac(a2-3)]Gal(b1-4)Glc
# Procedure, shortened: as §1
# [14] = target: Neu5Ac(a2-3)Gal(b1-3)GalNAc6S
# Procedure, shortened: as §1
# [15] = target: Neu5Ac(a2-3)Gal(b1-3)GlcNAc
# Procedure, shortened: as §1
# [16] = target: Neu5Ac(a2-3)Gal(b1-3)GlcNAc6S
# Procedure, shortened: as §1
# [17] = target: Neu5Ac(a2-3)Gal(b1-3)[Fuc(a1-4)]GlcNAc
# Procedure, shortened: as §1
# [18] = target: Neu5Ac(a2-3)Gal(b1-3)[Fuc(a1-4)]GlcNAc(b1-3)Gal(b1-4)[Fuc(a1-3)]GlcNAc
# Procedure, shortened: as §1
# [19] = target: Neu5Ac(a2-3)Gal(b1-3)[Neu5Ac(a2-3)Gal(b1-4)]GlcNAc
# Procedure, shortened: as §1
# [20] = target: Neu5Ac(a2-3)Gal(b1-3)[Neu5Ac(a2-6)]GalNAc
# Procedure, shortened: as §1
# Neu5Ac(a2-3)Gal(b1-4)Glc = target: Neu5Ac(a2-3)Gal(b1-4)Glc
# Procedure, shortened: as §1
# [21] = target: Neu5Ac(a2-3)Gal(b1-4)GlcNAc
# Procedure, shortened: as §1
# [22] = target: Neu5Ac(a2-3)Gal(b1-4)GlcNAc(b1-3)Gal(b1-4)GlcNAc
# Procedure, shortened: as §1
# [23] = target: Neu5Ac(a2-3)Gal(b1-4)GlcNAc(b1-3)Gal(b1-4)GlcNAc(b1-3)Gal(b1-4)GlcNAc
# Procedure, shortened: as §1
# [24] = target: Neu5Ac(a2-3)Gal(b1-4)GlcNAc(b1-3)Gal(b1-4)[Fuc(a1-3)]GlcNAc
# Procedure, shortened: as §1
# [25] = target: Neu5Ac(a2-3)Gal(b1-4)GlcNAc6S
# Procedure, shortened: as §1
# [26] = target: Neu5Ac(a2-3)Gal(b1-4)[Fuc(a1-3)]GlcNAc
# Procedure, shortened: as §1
# [27] = target: Neu5Ac(a2-3)Gal(b1-4)[Fuc(a1-3)]GlcNAc(b1-3)Gal
# Procedure, shortened: as §1
# [28] = target: Neu5Ac(a2-3)Gal(b1-4)[Fuc(a1-3)]GlcNAc(b1-3)Gal(b1-4)GlcNAc
# Procedure, shortened: as §1
# [29] = target: Neu5Ac(a2-3)Gal(b1-4)[Fuc(a1-3)]GlcNAc(b1-3)Gal(b1-4)[Fuc(a1-3)]GlcNAc(b1-3)Gal(b1-4)[Fuc(a1-3)]GlcNAc
# Procedure, shortened: as §1
binder,measurement,setting,value
B1,glycan array binding signal (z-score),[1],-0.079
same,glycan array binding signal (z-score),[2],-0.251
same,glycan array binding signal (z-score),Man(a1-2)Man(a1-3)Man,-0.228
same,glycan array binding signal (z-score),[3],-0.154
same,glycan array binding signal (z-score),[4],5.03
same,glycan array binding signal (z-score),[5],0.005
same,glycan array binding signal (z-score),[6],-0.215
same,glycan array binding signal (z-score),Man(a1-3)[Man(a1-6)]Man,-0.223
same,glycan array binding signal (z-score),[7],-0.171
same,glycan array binding signal (z-score),[8],-0.211
same,glycan array binding signal (z-score),[9],-0.241
same,glycan array binding signal (z-score),Man(b1-4)GlcNAc,-0.341
same,glycan array binding signal (z-score),Neu5Ac(a2-3)Gal,-0.264
same,glycan array binding signal (z-score),[10],-0.194
same,glycan array binding signal (z-score),[11],-0.212
same,glycan array binding signal (z-score),[12],-0.256
same,glycan array binding signal (z-score),[13],-0.271
same,glycan array binding signal (z-score),[14],-0.149
same,glycan array binding signal (z-score),[15],-0.253
same,glycan array binding signal (z-score),[16],-0.231
same,glycan array binding signal (z-score),[17],-0.236
same,glycan array binding signal (z-score),[18],-0.264
same,glycan array binding signal (z-score),[19],-0.289
same,glycan array binding signal (z-score),[20],-0.213
same,glycan array binding signal (z-score),Neu5Ac(a2-3)Gal(b1-4)Glc,-0.211
same,glycan array binding signal (z-score),[21],-0.2
same,glycan array binding signal (z-score),[22],-0.253
same,glycan array binding signal (z-score),[23],-0.229
same,glycan array binding signal (z-score),[24],-0.269
same,glycan array binding signal (z-score),[25],-0.184
same,glycan array binding signal (z-score),[26],-0.192
same,glycan array binding signal (z-score),[27],-0.265
same,glycan array binding signal (z-score),[28],-0.191
same,glycan array binding signal (z-score),[29],-0.127
